Measured values reported in paper PMC5062570 (Nature Communications, 2016).

Legend:
[1] = molecular target: PF-7802-labelled proteins in ARPE-19 cells (Homo sapiens, UniProt P18206); settings: VCL Vinculin (P18206)
[2] = molecular target: PF-7802-labelled proteins in ARPE-19 cells (Homo sapiens, UniProt Q00839); settings: for Median SILAC Ratio (Heavy/Light): protein HNRNPU Heterogeneous nuclear ribonucleoprotein U (Q00839), one column per replicate
[3] = molecular target: PF-7802-labelled proteins in ARPE-19 cells (Homo sapiens, UniProt Q99714); settings: protein HSD17B10 3-hydroxyacyl-CoA dehydrogenase type-2 (Q99714); one column per replicate
UniProt Q99714, sequence (Q99714 whole entry): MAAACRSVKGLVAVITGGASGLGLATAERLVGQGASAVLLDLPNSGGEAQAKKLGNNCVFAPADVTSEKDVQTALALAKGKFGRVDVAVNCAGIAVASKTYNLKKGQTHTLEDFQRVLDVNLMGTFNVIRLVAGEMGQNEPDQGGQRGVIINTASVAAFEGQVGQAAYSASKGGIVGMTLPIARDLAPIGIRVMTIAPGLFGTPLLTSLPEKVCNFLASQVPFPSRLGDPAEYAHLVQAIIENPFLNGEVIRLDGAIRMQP

[4] = molecular target: T1, PF-7802-labelled proteins in ARPE-19 cells (Homo sapiens, UniProt P30837); settings: for Median SILAC Ratio (Heavy/Light): protein ALDH1B1 Aldehyde dehydrogenase X, mitochondrial (P30837)
T1 sequence (P30837 18-517): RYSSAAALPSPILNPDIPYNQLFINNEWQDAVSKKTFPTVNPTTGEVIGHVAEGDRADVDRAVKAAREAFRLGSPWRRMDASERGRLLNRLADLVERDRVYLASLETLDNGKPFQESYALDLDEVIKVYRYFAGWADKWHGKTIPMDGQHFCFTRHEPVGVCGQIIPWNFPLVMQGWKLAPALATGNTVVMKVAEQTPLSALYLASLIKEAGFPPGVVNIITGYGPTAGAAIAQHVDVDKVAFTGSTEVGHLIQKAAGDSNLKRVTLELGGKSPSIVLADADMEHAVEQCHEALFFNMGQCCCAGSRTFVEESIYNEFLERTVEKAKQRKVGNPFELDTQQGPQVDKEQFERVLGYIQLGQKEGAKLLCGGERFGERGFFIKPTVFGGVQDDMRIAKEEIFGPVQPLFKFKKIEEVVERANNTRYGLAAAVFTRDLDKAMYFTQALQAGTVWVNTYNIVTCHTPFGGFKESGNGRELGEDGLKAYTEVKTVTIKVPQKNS

[5] = molecular target: PF-7802-labelled proteins in ARPE-19 cells (Homo sapiens, UniProt Q7KZF4); settings: SND1 Staphylococcal nuclease domain-containing protein 1 (Q7KZF4)
UniProt Q7KZF4, sequence (Q7KZF4 whole entry, the tested form may be a part): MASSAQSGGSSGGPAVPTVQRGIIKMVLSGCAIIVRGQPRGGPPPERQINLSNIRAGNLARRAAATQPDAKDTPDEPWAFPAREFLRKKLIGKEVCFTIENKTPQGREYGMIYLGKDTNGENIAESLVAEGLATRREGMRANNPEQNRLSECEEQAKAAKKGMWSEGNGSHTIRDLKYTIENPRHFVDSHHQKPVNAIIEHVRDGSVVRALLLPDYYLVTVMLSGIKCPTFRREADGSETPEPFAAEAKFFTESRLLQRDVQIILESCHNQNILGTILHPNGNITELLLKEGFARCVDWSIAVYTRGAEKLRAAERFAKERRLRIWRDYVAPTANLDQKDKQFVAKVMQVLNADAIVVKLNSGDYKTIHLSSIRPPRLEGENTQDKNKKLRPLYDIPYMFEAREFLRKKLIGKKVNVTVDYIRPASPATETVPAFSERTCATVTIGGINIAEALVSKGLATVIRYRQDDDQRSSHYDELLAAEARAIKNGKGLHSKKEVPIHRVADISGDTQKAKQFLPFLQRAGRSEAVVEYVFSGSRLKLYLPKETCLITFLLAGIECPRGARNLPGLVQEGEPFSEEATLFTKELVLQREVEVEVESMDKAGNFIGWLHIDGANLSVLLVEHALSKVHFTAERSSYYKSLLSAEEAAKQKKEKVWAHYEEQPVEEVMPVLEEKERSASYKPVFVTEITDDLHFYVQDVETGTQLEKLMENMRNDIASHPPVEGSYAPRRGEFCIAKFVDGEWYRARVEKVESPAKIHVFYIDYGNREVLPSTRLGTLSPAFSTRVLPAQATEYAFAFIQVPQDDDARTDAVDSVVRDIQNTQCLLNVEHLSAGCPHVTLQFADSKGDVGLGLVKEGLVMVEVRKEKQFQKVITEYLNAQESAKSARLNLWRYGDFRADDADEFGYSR

[6] = molecular target: PF-7802-labelled proteins in ARPE-19 cells (Homo sapiens, UniProt Q15147); settings: protein PLCB4 1-phosphatidylinositol 4,5-bisphosphate phosphodiesterase beta-4 (Q15147); replicates in separate columns
[7] = molecular target: PF-7802-labelled proteins in ARPE-19 cells (Homo sapiens, UniProt Q5BJF2); settings: TMEM97 Transmembrane protein 97 (Q5BJF2)
UniProt Q5BJF2, sequence (Q5BJF2 whole entry): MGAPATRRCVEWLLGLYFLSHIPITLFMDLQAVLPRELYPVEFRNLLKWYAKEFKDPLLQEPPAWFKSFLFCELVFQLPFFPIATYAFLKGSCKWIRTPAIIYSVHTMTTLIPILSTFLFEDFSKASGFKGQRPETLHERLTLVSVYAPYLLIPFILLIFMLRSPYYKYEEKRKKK

[8] = molecular target: PF-7802-labelled proteins in ARPE-19 cells (Homo sapiens, UniProt P40227); settings: protein CCT6A T-complex protein 1 subunit zeta (P40227)
UniProt P40227, sequence (P40227 whole entry): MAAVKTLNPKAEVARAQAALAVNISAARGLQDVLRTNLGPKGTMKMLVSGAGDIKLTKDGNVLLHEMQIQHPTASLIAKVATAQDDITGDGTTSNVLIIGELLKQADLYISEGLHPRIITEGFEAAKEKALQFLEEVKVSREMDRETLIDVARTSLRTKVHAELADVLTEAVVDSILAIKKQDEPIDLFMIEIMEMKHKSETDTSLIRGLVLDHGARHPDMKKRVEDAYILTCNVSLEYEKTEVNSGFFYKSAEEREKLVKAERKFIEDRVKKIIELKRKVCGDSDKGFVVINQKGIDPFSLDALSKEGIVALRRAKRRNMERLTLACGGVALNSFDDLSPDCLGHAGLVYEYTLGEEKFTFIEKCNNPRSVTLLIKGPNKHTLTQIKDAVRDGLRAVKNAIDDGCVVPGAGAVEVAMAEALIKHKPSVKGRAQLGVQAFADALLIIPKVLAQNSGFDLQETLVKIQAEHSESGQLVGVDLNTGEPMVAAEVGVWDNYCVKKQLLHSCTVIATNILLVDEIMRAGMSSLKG

[9] = molecular target: PF-7802-labelled proteins in ARPE-19 cells (Homo sapiens, UniProt P62241); settings: protein RPS8 40S ribosomal protein S8, P62241
[10] = molecular target: PF-7802-labelled proteins in ARPE-19 cells (Homo sapiens, UniProt P00403); settings: protein MT-CO2 Cytochrome c oxidase subunit 2 (P00403); replicates in separate columns
UniProt P00403, sequence (P00403 whole entry): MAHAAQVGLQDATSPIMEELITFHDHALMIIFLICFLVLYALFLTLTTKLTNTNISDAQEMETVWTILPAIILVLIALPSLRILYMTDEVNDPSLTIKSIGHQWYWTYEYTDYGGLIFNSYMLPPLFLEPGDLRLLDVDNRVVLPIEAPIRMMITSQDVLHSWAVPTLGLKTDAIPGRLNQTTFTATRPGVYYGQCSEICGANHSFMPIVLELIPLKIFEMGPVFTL

[11] = molecular target: PF-7802-labelled proteins in ARPE-19 cells (Homo sapiens, UniProt P68366); settings: for Median SILAC Ratio (Heavy/Light): TUBA4A Tubulin alpha-4A chain (P68366)
UniProt P68366, sequence (P68366 whole entry): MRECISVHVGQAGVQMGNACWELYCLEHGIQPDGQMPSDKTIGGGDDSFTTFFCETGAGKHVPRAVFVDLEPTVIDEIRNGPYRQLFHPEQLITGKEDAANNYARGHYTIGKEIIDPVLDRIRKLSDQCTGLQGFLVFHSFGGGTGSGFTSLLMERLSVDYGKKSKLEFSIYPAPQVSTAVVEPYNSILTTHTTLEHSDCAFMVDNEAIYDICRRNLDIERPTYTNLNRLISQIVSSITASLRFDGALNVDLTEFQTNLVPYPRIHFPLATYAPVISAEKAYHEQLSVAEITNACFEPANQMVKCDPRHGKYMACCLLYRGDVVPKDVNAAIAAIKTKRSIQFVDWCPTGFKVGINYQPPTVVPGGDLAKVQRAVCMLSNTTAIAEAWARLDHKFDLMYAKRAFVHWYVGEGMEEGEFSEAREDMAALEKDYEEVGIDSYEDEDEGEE

[12] = molecular target: PF-7802-labelled proteins in ARPE-19 cells (Homo sapiens, UniProt P31040); settings: SDHA Succinate dehydrogenase [ubiquinone] flavoprotein subunit, mitochondrial (P31040)
[13] = molecular target: PF-7802-labelled proteins in ARPE-19 cells (Homo sapiens, UniProt P08559); settings: protein PDHA1 Pyruvate dehydrogenase E1 component subunit alpha, somatic form, mitochondrial (P08559); replicates in separate columns
[14] = molecular target: T2, PF-7802-labelled proteins in ARPE-19 cells (Homo sapiens, UniProt P31943); settings: for Median SILAC Ratio (Heavy/Light): protein HNRNPH1 Heterogeneous nuclear ribonucleoprotein H (P31943), one column per replicate
T2 sequence (P31943 1-449): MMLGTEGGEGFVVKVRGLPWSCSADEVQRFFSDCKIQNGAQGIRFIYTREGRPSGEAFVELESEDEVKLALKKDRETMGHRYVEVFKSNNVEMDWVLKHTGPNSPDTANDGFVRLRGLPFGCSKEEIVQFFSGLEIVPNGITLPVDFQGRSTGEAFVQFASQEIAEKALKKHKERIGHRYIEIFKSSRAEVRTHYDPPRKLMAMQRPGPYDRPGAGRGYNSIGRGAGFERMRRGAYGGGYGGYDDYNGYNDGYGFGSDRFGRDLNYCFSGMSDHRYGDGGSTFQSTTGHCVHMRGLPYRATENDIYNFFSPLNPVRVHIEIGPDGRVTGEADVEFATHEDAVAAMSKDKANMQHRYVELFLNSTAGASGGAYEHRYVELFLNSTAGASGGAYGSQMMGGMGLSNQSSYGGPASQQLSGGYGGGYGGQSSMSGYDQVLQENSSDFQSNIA

[15] = molecular target: PF-7802-labelled proteins in ARPE-19 cells (Homo sapiens, UniProt P27635); settings: protein RPL10 60S ribosomal protein L10, P27635

UniProt Q00839, sequence (Q00839 whole entry): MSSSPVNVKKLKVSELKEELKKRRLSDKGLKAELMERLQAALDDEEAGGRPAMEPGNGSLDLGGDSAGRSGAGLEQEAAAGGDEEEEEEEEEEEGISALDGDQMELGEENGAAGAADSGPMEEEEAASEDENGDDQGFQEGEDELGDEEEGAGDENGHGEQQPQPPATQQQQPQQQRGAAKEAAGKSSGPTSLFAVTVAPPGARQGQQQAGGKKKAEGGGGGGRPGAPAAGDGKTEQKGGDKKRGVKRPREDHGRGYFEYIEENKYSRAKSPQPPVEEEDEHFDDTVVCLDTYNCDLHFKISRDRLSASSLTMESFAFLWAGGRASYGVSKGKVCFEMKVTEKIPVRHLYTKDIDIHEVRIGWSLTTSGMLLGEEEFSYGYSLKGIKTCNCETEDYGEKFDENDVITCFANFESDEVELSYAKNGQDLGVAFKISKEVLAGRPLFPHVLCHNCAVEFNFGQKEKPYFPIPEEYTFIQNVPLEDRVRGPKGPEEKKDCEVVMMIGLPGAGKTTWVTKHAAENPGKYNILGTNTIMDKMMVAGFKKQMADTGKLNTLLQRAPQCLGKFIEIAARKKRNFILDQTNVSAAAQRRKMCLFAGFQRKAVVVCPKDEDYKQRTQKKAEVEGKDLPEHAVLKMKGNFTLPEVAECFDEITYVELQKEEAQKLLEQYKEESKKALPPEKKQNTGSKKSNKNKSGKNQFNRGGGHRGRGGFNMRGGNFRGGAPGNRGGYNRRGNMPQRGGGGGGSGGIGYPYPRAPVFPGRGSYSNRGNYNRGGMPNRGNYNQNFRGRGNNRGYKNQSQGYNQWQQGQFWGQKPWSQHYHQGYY
UniProt P18206, sequence (P18206 whole entry): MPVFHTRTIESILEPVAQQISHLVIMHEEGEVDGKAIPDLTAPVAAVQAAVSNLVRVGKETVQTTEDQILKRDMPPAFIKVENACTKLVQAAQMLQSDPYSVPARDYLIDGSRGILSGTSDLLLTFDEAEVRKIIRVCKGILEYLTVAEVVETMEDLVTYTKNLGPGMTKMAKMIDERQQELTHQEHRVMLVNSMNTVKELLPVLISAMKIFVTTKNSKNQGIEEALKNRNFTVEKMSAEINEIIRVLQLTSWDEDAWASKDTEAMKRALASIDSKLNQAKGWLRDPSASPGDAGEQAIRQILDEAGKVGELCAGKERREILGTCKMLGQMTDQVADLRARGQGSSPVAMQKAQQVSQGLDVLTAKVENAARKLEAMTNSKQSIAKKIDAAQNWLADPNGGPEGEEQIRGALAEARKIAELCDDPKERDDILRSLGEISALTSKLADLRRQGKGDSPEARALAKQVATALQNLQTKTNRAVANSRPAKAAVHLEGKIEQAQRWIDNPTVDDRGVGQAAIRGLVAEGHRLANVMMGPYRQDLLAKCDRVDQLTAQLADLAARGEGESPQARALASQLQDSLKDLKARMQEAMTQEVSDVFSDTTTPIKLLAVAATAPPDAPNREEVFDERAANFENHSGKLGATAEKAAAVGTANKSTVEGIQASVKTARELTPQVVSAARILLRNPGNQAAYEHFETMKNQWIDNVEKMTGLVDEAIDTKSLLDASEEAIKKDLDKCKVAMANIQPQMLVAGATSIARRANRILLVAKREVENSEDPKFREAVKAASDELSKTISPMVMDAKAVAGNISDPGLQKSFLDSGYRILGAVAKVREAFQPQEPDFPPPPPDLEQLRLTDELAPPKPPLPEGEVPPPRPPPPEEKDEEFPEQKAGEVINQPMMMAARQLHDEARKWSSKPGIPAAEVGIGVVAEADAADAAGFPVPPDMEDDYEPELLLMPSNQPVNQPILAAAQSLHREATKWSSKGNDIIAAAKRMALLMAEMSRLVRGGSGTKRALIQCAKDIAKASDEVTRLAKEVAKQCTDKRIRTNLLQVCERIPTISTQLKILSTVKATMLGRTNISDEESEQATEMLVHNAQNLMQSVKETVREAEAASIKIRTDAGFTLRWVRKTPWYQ

| SMILES | Median SILAC Ratio (Heavy/Light) [1] | SILAC ratio (DMSO/CP-108671) ([2]; Q00839 HNRNPU Heterogeneous nuclear ribonucleoprotein U) | Median SILAC Ratio (Heavy/Light) [2] | Median SILAC Ratio (Heavy/Light) [3] | SILAC ratio (DMSO/CP-108671) ([4]; P30837 ALDH1B1 Aldehyde dehydrogenase X, mitochondrial) | Median SILAC Ratio (Heavy/Light) [4] | Median SILAC Ratio (Heavy/Light) [5] | Median SILAC Ratio (Heavy/Light) [6] | Median SILAC Ratio (Heavy/Light) [7] | Median SILAC Ratio (Heavy/Light) [8] | Median SILAC Ratio (Heavy/Light) [9] | Median SILAC Ratio (Heavy/Light) [10] | SILAC ratio (DMSO/CP-108671) ([11]; P68366 TUBA4A Tubulin alpha-4A chain) | Median SILAC Ratio (Heavy/Light) [11] | Median SILAC Ratio (Heavy/Light) [12] | Median SILAC Ratio (Heavy/Light) [13] | SILAC ratio (DMSO/CP-108671) ([14]; P31943 HNRNPH1 Heterogeneous nuclear ribonucleoprotein H) | Median SILAC Ratio (Heavy/Light) [14] | Median SILAC Ratio (Heavy/Light) [15] |
| --- | --- | --- | --- | --- | --- | --- | --- | --- | --- | --- | --- | --- | --- | --- | --- | --- | --- | --- | --- |
| CNC1CCN(C(=O)C[C@@H](Cc2ccccc2)C(=O)N[C@@H](CSC)C(=O)N[C@@H](CC2CCCCC2)[C@@H](O)C(=O)OC(C)C)CC1 [CP-108671, reference compound] | 2.042 | 0.94 | 1.133 and 0.747 | 1.368 | 0.71 | 1.3994 | 1.181 | 1.2488 | 0.2793 | 1.435 | 1.683 | 1.2459 | 0.45 | 2.243 | 1.212 | 0.9666 | 0.91 | 1.094 | 1.724 |
| Cc1cc([C@H]2C[C@H]3[C@@H](C)SC(N)=N[C@@]3(c3ccc(F)cc3F)CO2)on1 [PF-9283] | 1.456 and 1.39 and 1.283 | – | 1.286 and 0.7433 and 2.188 | 2.093 | – | 1.4738 | 1.115 | 1.422 | 0.5851 | 1.475 | 1.7814 and 0.9885 and 1.1 | 1.293 | – | 1.8705 and 1.786 | 1.262 | 1.115 | – | 1.267 and 0.8852 and 1.763 | 1.431 and 2.456 |

Several values for one entry are separate records, joined by “and”; a condition that tells them apart may be missing. Identical values can stand only once.
